Data from PubChem BioAssay AID1240 (Sanford-Burnham Center for Chemical Genomics, 2008).
In all, about 50,000 compounds went through this assay and about 800 (1.6%) showed an effect of 50% or more. The list shows a part of the results.

The compounds below were run against Bcl-2-like protein 10 (Homo sapiens) (UniProt Q9HD36) (assay: Phenotype converters, Bcl-B/TR3 peptide binding displacement, primary biochemical FP (AID 1240;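 also: 0% = Bcl-B with tracer peptide and DMSO and 100% = tracer peptide lacking Bcl-B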)). Conditions: GST-Bcl-B / FITC-TR3 peptide fluorescence polarization; stronger effect = higher value; compound at 3.75 mg/L.
Chain of UniProt Q9HD36 (Q9HD36 whole entry, looked up): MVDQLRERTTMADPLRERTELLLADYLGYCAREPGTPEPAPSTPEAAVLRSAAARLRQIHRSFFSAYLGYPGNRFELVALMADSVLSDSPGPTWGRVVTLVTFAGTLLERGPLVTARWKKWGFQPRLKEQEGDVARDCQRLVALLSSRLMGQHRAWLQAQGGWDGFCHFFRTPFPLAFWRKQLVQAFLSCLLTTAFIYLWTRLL
Work on `CCC(C(=O)Nc1cccc(Br)c1)c1ccccc1` (centres undefined) yielded a displacement of 8.7%.
Work on `CCCCOc1cccc(C(=O)N2CCN(c3ccc([N+](=O)[O-])cc3)CC2)c1` yielded a displacement of 12.9%.
Compound `COc1ccc(NC(=O)CN(Cc2ccccc2)S(=O)(=O)c2ccccc2)cc1` has a displacement of 6%.
Work on `NS(=O)(=O)c1ccc(NC(=O)CCC(=O)O)cc1` yielded a displacement of -3.2%.
Work on `O=C(NCCCNc1ccc([N+](=O)[O-])cc1)c1cccc(Br)c1` yielded a displacement of -3.6%.
Work on `O=C(NC(NC(=S)Nc1cccc(Br)c1)C(Cl)(Cl)Cl)c1ccccc1F` (centres undefined) yielded a displacement of 12.6%.
For `COc1ccc(NC(=O)CC(C)=O)cc1Cl`, the displacement was 2.1%.
In the case of `Cc1ccc(/C(O)=C(\C#N)c2nc3ccccc3[nH]2)cc1`, the displacement is reported as -11.6%.
`CCCCNCCCCOc1c(C)cccc1C` was tested, and the displacement was 8.6%.
In the case of `CCOC(=O)c1ccc(N2C(=O)CC(=O)NC2=O)cc1`, the displacement is reported as -0.9%.
In the case of `O=S(=O)(NCc1ccco1)c1ccc(Cl)cc1Cl`, the displacement is reported as -8.7%.
Compound `O=S(=O)(c1ccc(I)cc1)N1CCCC1` has a displacement of 14.1%.
Compound `COc1ccc(NCCC(=O)c2ccc(Cl)c(Cl)c2)cc1` has a displacement of -2.3%.
In the case of `Cc1cccc(C(=O)NC(NC(=O)c2cccc(C)c2)c2ccc(Br)cc2)c1`, the displacement is reported as -4.1%.
For `O=C(CNc1ccccc1Cl)c1ccc([N+](=O)[O-])cc1`, the displacement was -9.2%.
With `O=C(O)CCCN1C(=O)C(=O)/C(=C(/O)c2ccccc2)C1c1ccccc1Cl` (centres undefined) the displacement was -8%.
`COc1cc(/C=C2\C(=O)NC(=O)N(c3ccc(C)cc3)C2=O)c(Br)cc1OCC(=O)O` showed a displacement of 16.2%.
`O=C1CCCc2oc3ccc(NS(=O)(=O)c4cc(Cl)ccc4Cl)cc3c21` was tested, and the displacement was -1.2%.
`CCN1C(C)=C(C(=O)OC)C(c2ccc([N+](=O)[O-])cc2)C(C(=O)OC)=C1C` was tested, and the displacement was 7.4%.
Work on `COc1ccc(N2C(=O)CC(C3CCCO3)C2=O)cc1` (centres undefined) yielded a displacement of -6.7%.
With `O=C(O)c1ccc(NC(=O)c2cc(NC(=O)c3ccc(C(=O)O)cc3)cc(C(=O)Nc3ccc([N+](=O)[O-])cc3)c2)cc1` the displacement was 10%.
`Cc1cc(C)cc(NC(=O)C(=O)NCC(C)O)c1` (centres undefined) showed a displacement of -0.7%.
In the case of `COCCNC(=O)CN(c1ccc(OC)c(Cl)c1)S(C)(=O)=O`, the displacement is reported as -14.1%.
`O=C(NCC1(c2ccccc2)CCOCC1)c1ccc(Cl)cc1Cl` gave a displacement of -8.5%.
`CCN(CC)C(=O)c1sc(NC(=O)C2c3ccccc3Oc3ccccc32)c(C(N)=O)c1C` gave a displacement of -3.7%.
For `CC(C)CCNC(=O)c1cc(-c2ccccc2)nc2ccccc12`, the displacement was -8.9%.
`Fc1c(F)c(C(F)(F)F)c(F)c(F)c1N1CCN(c2ccc3nnc(C(F)(F)F)n3n2)CC1` was tested, and the displacement was -11.2%.
In the case of `Nc1nonc1N=Cc1ccccc1O`, the displacement is reported as -11%.
In the case of `O=C(CN1C(=O)c2ccc([N+](=O)[O-])cc2C1=O)Nc1ccc(F)cc1`, the displacement is reported as 1.6%.
Work on `COc1cccc(/C=N/NC(=O)Cn2c(-c3nonc3N)nc3ccccc32)c1OCc1ccc(Cl)cc1Cl` yielded a displacement of 8.6%.
For `COc1ccc(S(=O)(=O)Oc2ccccc2)cc1`, the displacement was 4.7%.
For `Cc1ccc(-c2nnc(-c3ccc(Br)o3)o2)cc1`, the displacement was -2.1%.
`Cc1ccc(C(=O)O)cc1N1C(=O)c2ccc(Oc3cccc([N+](=O)[O-])c3)cc2C1=O` showed a displacement of -5.7%.
In the case of `O=C(O)COc1ccc(/C=C2\C(=O)NN(c3ccccc3)C2=O)cc1`, the displacement is reported as 22.6%.
`N#Cc1c(C(F)(F)F)cc(-c2ccccc2)nc1SCC(=O)NCC(=O)O` gave a displacement of 13.6%.
Compound `CCc1ccc(N2CC(C(=O)Nc3ccc([N+](=O)[O-])cc3)CC2=O)cc1` (centres undefined) has a displacement of 12.4%.
Work on `Cc1ccc(-n2nc(C)c(-c3cccc([N+](=O)[O-])c3)c2C)cc1Cl` yielded a displacement of 10.6%.
`C/C=C/C=C/C(=O)N1C(=O)C(=O)c2cc(Br)ccc21` showed a displacement of 4.9%.
Compound `COc1ccc(C2C(C(=O)/C=C/c3ccccc3)=C(O)C(=O)N2CCCCCC(=O)O)cc1OC` (centres undefined) has a displacement of -11.7%.
Work on `COc1ccc(NC(=O)c2cc(-c3ccc(OC)cc3)nc3ccccc23)cc1` yielded a displacement of 4.8%.
`COc1cc(/C=C2\NC(=S)NC2=O)ccc1Oc1ccc([N+](=O)[O-])cn1` showed a displacement of 8.2%.
Compound `COC(=O)c1ccc(/C=C2\SC(=S)N(CCCC(=O)Nc3nccs3)C2=O)cc1` has a displacement of 26.3%.
In the case of `Cc1cccn2c(=O)c(/C=C3\SC(=S)N(Cc4ccccc4)C3=O)c(NCCCn3ccnc3)nc12`, the displacement is reported as 9.7%.
Compound `COc1ccc(C(=O)Nc2ccc(S(=O)(=O)Nc3ncccn3)cc2)cc1OC` has a displacement of -11.5%.
For `Nc1ncc(-c2ccc([N+](=O)[O-])cc2)cn1`, the displacement was -4.1%.
In the case of `Cc1c(N(C(=O)c2ccc(Cl)cc2)C(C)C)c(=O)n(-c2ccccc2)n1C`, the displacement is reported as -1.6%.
With `O=c1cc(N2CCCCC2)c2ccccc2n1-c1ccccc1` the displacement was -10%.
Compound `Cc1ccc(OCC(=O)NN)c(Br)c1` has a displacement of -6.5%.
`COc1ccc(C(O)(C(=O)NCCCCOc2ccccc2)c2ccc(OC)cc2)cc1` gave a displacement of -3.3%.
Work on `COc1ccccc1N1C(=O)c2ccc(C(=O)Nc3ccccc3O)cc2C1=O` yielded a displacement of 20.9%.
Compound `N=c1oc2ccc([N+](=O)[O-])cc2cc1-c1nc2ccccc2[nH]1` has a displacement of -3.3%.
For `Nc1nnnn1/N=C/c1ccc(N2CCOCC2)cc1`, the displacement was 0%.
`CCCOC(=O)C1=C(C)NC2=C(C(=O)CC(c3ccc(OC)cc3)C2)C1c1cc(Br)c(O)c(OC)c1` (centres undefined) was tested, and the displacement was -6.2%.
With `CCOc1ccc(/C=C(\NC(=O)c2cccc(Br)c2)C(=O)N2CCCCCC2)cc1` the displacement was -8%.
